This is an account of results in the supplement of paper PMC11417369.

± gives the standard deviation of the averaged measurements. Some of the results follow.

In this assay the test system is PfAP2-LT AP2 domain (GST-tagged). The experiment in a line: gcPBM binding intensity (ln(normalized median fluorescence intensity)); higher = stronger DNA binding. The essentials:
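Each value is the highest Masliner-normalised natural-log median intensity across replicate spots of either orientation of a probe. The probes were primer-extended double-stranded 36-bp intergenic genomic sequences on an Agilent 4 × 180k array, alongside negative controls, exposed for 1 h to GST-tagged P. falciparum DNA-binding domains expressed in E. coli. Bound protein was picked up with Alexa488 anti-GST antibody and scanned at 488 nm.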
As for “TTCAATTTTTTATGAACACACAAAAAAAAAAAAAAA [CACACA_site2533]”, the “gcPBM binding intensity (ln)” value is 8.4 ± 0.34. With “ACATAATTAACAAATACACACACACCCACCCACAAA [CACACA_site8069]”, the “gcPBM binding intensity (ln)” value came to 10.3 ± 0.13. As to “TTATATTATTTTTATACATGCATTTCTATATATTTT [TGCATGCA_site164]”, the “gcPBM binding intensity (ln)” value was determined as 8.96 ± 0.4.

As for “ATTTGTGATTTGTGTGTGCACGTATTTACAGAACAA [GTGCAC_site9498]”, the “gcPBM binding intensity (ln)” value stood at 9.21 ± 0.37. For the sequence “AAGAAAAAATATATATATATATATATATATAATATG [TGCATGCA_negctrl_site417]”, the “gcPBM binding intensity (ln)” value came to 9.25 ± 0.62. Turning to “ATCCATCTTTTAATTTGTACTTATTCTTTTTTCTTT [XGTACX_site5299]”, the “gcPBM binding intensity (ln)” value is 9.05 ± 0.5. Consider “ATATATATATGTAATAGTACATATGATAGTTTGTCA [XGTACX_site1545]”, for which the “gcPBM binding intensity (ln)” value came out at 9.03 ± 0.49.

With “ATTAGTTTTATATATAGTACATATAATTTTGAAGGT [XGTACX_site7445]”, the “gcPBM binding intensity (ln)” value was 8.74 ± 0.32. Turning to “AATATATATATATTATCACACACTCACGTTTGACAA [CACACA_site8130]”, the “gcPBM binding intensity (ln)” value turned out to be 9.06 ± 0.37. Take “TATGATATATATAATACACACATATACATAAGATCT [CACACA_site1119]”: the “gcPBM binding intensity (ln)” value amounted to 9.06 ± 0.31.

On to “TAAAAAAAACGAACAAGTACACATAAAAAAAAATTA [XGTACX_site5982]”, for which the “gcPBM binding intensity (ln)” value was determined as 8.87 ± 0.46.

Regarding “ATTATATCATATATATGTACACATATATAACATGAT [XGTACX_site7]”, the “gcPBM binding intensity (ln)” value was found to be 8.86 ± 0.26. “TTGTAATTTATTCAAACACACAATTTGGACCTTTTT [CACACA_site1063]”: the “gcPBM binding intensity (ln)” value amounted to 8.79 ± 0.51. On to “TATTCATAATTTTAATGTACAAAATGGTTTGTAATA [XGTACX_site8493]”, for which the “gcPBM binding intensity (ln)” value worked out at 8.45 ± 0.48. Consider “AAAGATAAATTAAAAAGTACATATTTATTCAATGTA [XGTACX_site8543]”, for which the “gcPBM binding intensity (ln)” value is 8.52 ± 0.49. Regarding “TATAATAATTAAAAGTGTACTAAATTTTTACATATA [XGTACX_site2523]”, the “gcPBM binding intensity (ln)” value worked out at 8.37 ± 0.33.

With “TTTTATTTATCTTAATGTACACATTTATATATATAT [XGTACX_site8588]”, the “gcPBM binding intensity (ln)” value was 8.97 ± 0.45.

For the sequence “CACTTTTTTTTTTACTGTACATATACAAATTAAAAA [XGTACX_site1565]”, the “gcPBM binding intensity (ln)” value came to 8.47 ± 0.28.

Regarding “TTATATATATTTAAAAAAATAACATAAATAAATAAA [CACACA_negctrl_site347]”, the “gcPBM binding intensity (ln)” value was determined as 8.29 ± 0.52. On to “GTAAATATAAACTCAGCACACAAACATATATATGTC [CACACA_site9326]”, for which the “gcPBM binding intensity (ln)” value came out at 9.22 ± 0.4. On to “TTAAATAAAAGGTTTAGTACTTAAAATAAGAAATGA [XGTACX_site6341]”, for which the “gcPBM binding intensity (ln)” value was found to be 8.46 ± 0.51. Regarding “TTTTTTTTCAATGGTTGTACAAAGTAAAACAACAAA [XGTACX_site1582]”, the “gcPBM binding intensity (ln)” value came out at 8.35 ± 0.37. Turning to “TGGGTGTAGAACAATTGTACTTTGTAAAAATATAAG [XGTACX_site8464]”, the “gcPBM binding intensity (ln)” value came out at 8.77 ± 0.57.

As to “ATTAAGTATATTTCTGCACACAAAAAAAAAAACCAA [CACACA_site9342]”, the “gcPBM binding intensity (ln)” value worked out at 9.12 ± 0.47.

Consider “GTATATATATATAAAAGTACATGTTATGAAAAAAAA [XGTACX_site5410]”, for which the “gcPBM binding intensity (ln)” value is 8.87 ± 0.47. Regarding “TTTTTTCTCAAAAAAAAAACCTATGGTTATTAAGAT [XGTACX_negctrl_site534]”, the “gcPBM binding intensity (ln)” value came to 8.06 ± 0.42. Take AAAATTTATAGTATGGTGCATAAAAATATATATATA: the “gcPBM binding intensity (ln)” value is 8.82 ± 0.46. On to “AAAAAAAAAAAAAAATGTACATAAAAATGATATAAT [XGTACX_site4096]”, for which the “gcPBM binding intensity (ln)” value was found to be 8.83 ± 0.47. With “TATAAGAAAAATAACACACACATAAACATAAATACA [CACACA_site5536]”, the “gcPBM binding intensity (ln)” value is 9.48 ± 0.21. Take “TTATAATTCTATTATCTGTTCTTTTTATATTTTTTT [CACACA_negctrl_site855]”: the “gcPBM binding intensity (ln)” value is 8.68 ± 0.49. For “TTCTAAACACATTGACAAATTAATATATTACAGCAA [GTGCAC_negctrl_site121]”, the “gcPBM binding intensity (ln)” value was 8.48 ± 0.36. The figure for “TTATTTTTCAATGAAAAGGATTATATATATATATAT [CACACA_negctrl_site757]” is 8.95 ± 0.092. On to “TGATGAAAATTTTTCTGTACAAAAAGTATGAAGGTA [XGTACX_site8901]”, for which the “gcPBM binding intensity (ln)” value is 8.65 ± 0.45. Take “ACAATATATAAAATATGTACATAATATATATAATGA [XGTACX_site8731]”: the “gcPBM binding intensity (ln)” value turned out to be 8.86 ± 0.32. Consider CCTAATTTTATTAGGGTGCATTTTTAGTTAAATATA, for which the “gcPBM binding intensity (ln)” value was 8.35 ± 0.32. For the sequence “ATCCACAAATTAACAAGTACATATATATATATATAT [XGTACX_site1267]”, the “gcPBM binding intensity (ln)” value turned out to be 9.64 ± 0.14. For the sequence “TAAGTTATATGTACTACACACGTACACAAAATAAGA [CACACA_site9237]”, the “gcPBM binding intensity (ln)” value worked out at 9.08 ± 0.35. Next, “TTAAGAATCTATACTAGTACATATATGTATACAAGC [XGTACX_site8025]”: 8.85 ± 0.47.

“ATTGTGTTAATAAAATGTACATTTTCTCTACTTTAA [XGTACX_site1199]”: the “gcPBM binding intensity (ln)” value came to 8.84 ± 0.54. With “TGTAGAACAAAAAATTGTACATATTTGTAAAAAAAA [XGTACX_site3850]”, the “gcPBM binding intensity (ln)” value was 8.61 ± 0.53. As to “TATATATATATGTGTAGTACAACAAATATGAAAAAT [XGTACX_site4059]”, the “gcPBM binding intensity (ln)” value turned out to be 9.11 ± 0.4. “ATGAAAACCATGACGGGTACTCATTTATTATTTTAT [XGTACX_site6724]”: the “gcPBM binding intensity (ln)” value worked out at 8.75 ± 0.44. The figure for “AATTTAATATAATGCACACATAAAAAAAAATTCAAA [CACACA_site2062]” is 8.89 ± 0.41; for “ATTTATTTGTTTATTTGTTTATTTGTTTATTTGTTT [CACACA_negctrl_site1386]” it is 9.06 ± 0.46.
